From the supplement of paper PMC10338343 come the findings set out here.

± gives the standard deviation. The list shows a part of the results, in another mix than the full data.
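Further: 1 nM active piRISC with 0.1 nM target library at 33 °C single turnover.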

In the assay the test system is MIWI (PIWIL1) piRISC loaded with piRNA #1 (30 nt). Nature of the assay: pre-steady-state target cleavage rate (min^-1); MIWI and MILI are mouse PIWI proteins and EfPiwi is from a freshwater sponge; tags in brackets are library labels; higher = faster piRNA-guided slicing of the target. Particulars: guide: piRNA #1 5'p-UGAGGUAGUAGGUUGUAUAGUAUCCAGAGG; auxiliary factor: 500 nM mouse GTSF1. The method in brief:
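Three pooled Cleave-'n-Seq trials supplied the data, with k3 capped at 0.0001 min^-1. In each, […] transcribed, DNA-blocked target RNA library and 1 nM active affinity-purified piRISC with one synthetic guide reacted in HEPES–potassium acetate buffer at 33 °C for 0–8 or 0–960 min, with or without 500 nM GTSF1 partner protein. Uncleaved targets were sequenced and normalised to depth and to weakly complementary targets. A burst-and-steady-state fit provided the pre-steady-state cleavage rate.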
On to GGAGACCUUACUAUACAACCUACGUACCUCA, for which the “pre-steady-state target cleavage rate” value came out at 0.467 ± 0.05.

As to GGAGACCUAAGUAUACAACCUACUACCUCA, the “pre-steady-state target cleavage rate” value is 0.214 ± 0.033.

Consider GCUCUGGAUAUAUACAACCUACUACCUCA, for which the “pre-steady-state target cleavage rate” value worked out at 1.62 ± 0.086.

As for GGACUGGAUACUAUACAGCCUACUACCUCA, the “pre-steady-state target cleavage rate” value is 0.707 ± 0.034.

On to GGAGUGGAUACUAUUCAACCUACUACCUCA, for which the “pre-steady-state target cleavage rate” value was found to be 1.57 ± 0.087.

As for CCUCUGGUAUCUAUACAACCUACUACCUCA, the “pre-steady-state target cleavage rate” value is 1.18 ± 0.055.

With GGAGUGGAUACUAUACAACCUAUCUACCUCA, the “pre-steady-state target cleavage rate” value came out at 0.267 ± 0.024.

For the sequence CCUCAGGAUACUAUACAACCAACUACCUCA, the “pre-steady-state target cleavage rate” value worked out at 0.175 ± 0.02.

In the case of GGAGUGGAUACUAUACAACCUACUAGCCUCA, the “pre-steady-state target cleavage rate” value turned out to be 0.621 ± 0.089.

Regarding GGAGACCUAUCUAUACAAGCAACUACCUCA, the “pre-steady-state target cleavage rate” value worked out at 0.0059 ± 0.0026.

Consider CCACUGGAUAGUAUACAACCUACUACCUCA, for which the “pre-steady-state target cleavage rate” value was 0.165 ± 0.026.

Turning to GGAGACCAUACUAUACAACCUUCUACCUGA, the “pre-steady-state target cleavage rate” value was 0.243 ± 0.03.

GGAGUGGAUACUAUUGUACCUACUACCUCA: the “pre-steady-state target cleavage rate” value stood at 0.0769 ± 0.014.

On to GCUCUGGAUUCUAUACUACCUACUACCUCA, for which the “pre-steady-state target cleavage rate” value is 0.943 ± 0.066.

For the sequence GGAGACGAUACUAUACAUCGUACUACCUCA, the “pre-steady-state target cleavage rate” value is 0.328 ± 0.029.

In the case of GGAGACCUAACUAUUCAACCUUCUACCUCA, the “pre-steady-state target cleavage rate” value stood at 0.0695 ± 0.011.

Regarding GGACAGGAUACUAUACAACCAACUACCUCA, the “pre-steady-state target cleavage rate” value was 0.127 ± 0.011.

As to GGAGACCAUUCUAUACAACCUACUUCCUCA, the “pre-steady-state target cleavage rate” value stood at 0.225 ± 0.019.

Regarding GGAGACCUAUCAAUACAACCUUCUACCUCA, the “pre-steady-state target cleavage rate” value was 0.00538 ± 0.0027.

Turning to GGUCUGGAUAGUAUACAACCUACUUCCUCA, the “pre-steady-state target cleavage rate” value was found to be 0.302 ± 0.056.

In the case of GGAGUGGAUACUCUACAACCUACUACCUCA, the “pre-steady-state target cleavage rate” value worked out at 1.6 ± 0.096.

For GGAGUCCUUACUAUACAACCUACUACCUCA, the “pre-steady-state target cleavage rate” value was determined as 1.61 ± 0.12.

In the case of GCUCUGGAUUCUAUACAACCUACUUCCUCA, the “pre-steady-state target cleavage rate” value was 0.352 ± 0.022.

Take CCUCUGAUACUAUACAACCUACUACCUCA: the “pre-steady-state target cleavage rate” value worked out at 2.11 ± 0.12.
